Laboratory results as given in the supplement of paper PMC8728848.
Shown is part of a subset that was picked to be rich in the strongest signals.

What was measured:
Test in all cases: glycan array binding signal (z-score within array); higher = stronger binding
Conditions in all cases: glycan notation: IUPAC condensed, linker removed
[1] = system: Gal(a1-3)Gal(b1-4)GlcNAc(b1-3)GalNAc
Outline: (§1)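 Columns mapping to the same glycan were averaged after glycan names were converted to IUPAC-condensed notation. The data come from 3228 arrays in the Consortium for Functional Glycomics database, limited to those with an available protein sequence. Binding is reported as a within-array Z-score averaged across arrays of one protein sequence and across linkers.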

[2] = system: Gal(a1-3)Gal(b1-4)[Fuc(a1-3)]GlcNAc(b1-2)Man(a1-3)[Gal(a1-3)Gal(b1-4)[Fuc(a1-3)]GlcNAc(b1-2)Man(a1-6)]Man(b1-4)GlcNAc(b1-4)GlcNAc
Outline: as §1

[3] = system: Gal(a1-3)Gal(b1-3)GlcNAc(b1-2)Man
Outline: as §1

[4] = system: Gal(a1-2)Gal
Outline: as §1

[5] = system: Gal(a1-3)Gal(b1-4)Glc
Outline: as §1

[6] = system: Fuc(b1-3)GlcNAc
Outline: as §1

[7] = system: Gal(a1-3)Gal(b1-4)GlcNAc
Outline: as §1

[8] = system: Gal(a1-3)Gal(b1-3)[Fuc(a1-4)]GlcNAc(b1-2)Man(a1-3)[Gal(a1-3)Gal(b1-3)[Fuc(a1-4)]GlcNAc(b1-2)Man(a1-6)]Man(b1-4)GlcNAc(b1-4)GlcNAc
Outline: as §1

[9] = system: Gal(a1-3)Gal(b1-3)GlcNAc(b1-2)Man(a1-3)[Gal(a1-3)Gal(b1-3)GlcNAc(b1-2)Man(a1-6)]Man(b1-4)GlcNAc(b1-4)GlcNAc
Outline: as §1

[10] = system: Gal(a1-3)Gal(b1-3)GlcNAc(b1-6)GalNAc
Outline: as §1

**Q.** For “M-Ficolin A256V (Homo sapiens) (chain not printed)”, which “glycan array binding signal (z-score)” value [1] is on record?
**A.** -0.153

**Q.** What about the “glycan array binding signal (z-score)” value [2] of the same substance?
**A.** -0.156

**Q.** With FGF2 (chain not printed) as the substance, how does the “glycan array binding signal (z-score)” value [3] read?
**A.** -0.644

**Q.** With “CLEC-2 (Homo sapiens) (chain not printed)” as the substance, how does the “glycan array binding signal (z-score)” value [4] read?
**A.** -0.051

**Q.** With “Siglec-2 (Homo sapiens) (chain not printed)” as the substance, how does the “glycan array binding signal (z-score)” value [5] read?
**A.** -0.191

**Q.** How did the “glycan array binding signal (z-score)” value [6] turn out when “Galectin-8 C-terminal CRD (Homo sapiens) (chain not printed)” was run?
**A.** -0.269

**Q.** What about the “glycan array binding signal (z-score)” value [7] of the same substance?
**A.** -0.225

**Q.** “Thrombomodulin Extracellular (Homo sapiens) (chain not printed)” was tested. Which “glycan array binding signal (z-score)” value [7] did it give?
**A.** -0.12

**Q.** For MBP (Homo sapiens) (chain not printed), which “glycan array binding signal (z-score)” value [8] is on record?
**A.** 0.205

**Q.** For “Gal 8-short (Homo sapiens) (chain not printed)”, which “glycan array binding signal (z-score)” value [6] is on record?
**A.** -0.783

**Q.** Which results are given for “L-Ficolin (Homo sapiens) (chain not printed)”?
**A.** glycan array binding signal (z-score) [4]: -0.381; glycan array binding signal (z-score) [7]: 0.029

**Q.** Which “glycan array binding signal (z-score)” value [2] does the source give for “H-Ficolin (Homo sapiens) (chain not printed)” here?
**A.** -0.27

**Q.** What does the source list for “NCAM1 (Homo sapiens) (chain not printed)”?
**A.** glycan array binding signal (z-score) [1]: -0.112; glycan array binding signal (z-score) [2]: 1.65

**Q.** For “Meso764 (Homo sapiens) (chain not printed)”, which “glycan array binding signal (z-score)” value [6] is on record?
**A.** 0.208

**Q.** And the “glycan array binding signal (z-score)” value [9]?
**A.** 1.74

**Q.** And the “glycan array binding signal (z-score)” value [10]?
**A.** -0.624

**Q.** What about the “glycan array binding signal (z-score)” value [1] of the same substance?
**A.** 1.15

**Q.** Which results are given for “M-Ficolin Y271F (Homo sapiens) (chain not printed)”?
**A.** glycan array binding signal (z-score) [1]: -0.186; glycan array binding signal (z-score) [7]: -0.326
